These results are taken from publication PMC4336329 (PLoS ONE, 2015).

Among all 310,000 compounds or so, about 2,200 (0.71%) showed an effect of 50% or more. Effects have a minus sign here. The list shows a part of the results.

The target of this assay is human ether-à-go-go-related gene (hERG) potassium channel (human, UniProt Q12809). Nature of the assay: primary screen, population patch clamp on CHO cells stably expressing hERG.
human ether-à-go-go-related gene (hERG) potassium channel, sequence (Q12809 whole entry, looked up): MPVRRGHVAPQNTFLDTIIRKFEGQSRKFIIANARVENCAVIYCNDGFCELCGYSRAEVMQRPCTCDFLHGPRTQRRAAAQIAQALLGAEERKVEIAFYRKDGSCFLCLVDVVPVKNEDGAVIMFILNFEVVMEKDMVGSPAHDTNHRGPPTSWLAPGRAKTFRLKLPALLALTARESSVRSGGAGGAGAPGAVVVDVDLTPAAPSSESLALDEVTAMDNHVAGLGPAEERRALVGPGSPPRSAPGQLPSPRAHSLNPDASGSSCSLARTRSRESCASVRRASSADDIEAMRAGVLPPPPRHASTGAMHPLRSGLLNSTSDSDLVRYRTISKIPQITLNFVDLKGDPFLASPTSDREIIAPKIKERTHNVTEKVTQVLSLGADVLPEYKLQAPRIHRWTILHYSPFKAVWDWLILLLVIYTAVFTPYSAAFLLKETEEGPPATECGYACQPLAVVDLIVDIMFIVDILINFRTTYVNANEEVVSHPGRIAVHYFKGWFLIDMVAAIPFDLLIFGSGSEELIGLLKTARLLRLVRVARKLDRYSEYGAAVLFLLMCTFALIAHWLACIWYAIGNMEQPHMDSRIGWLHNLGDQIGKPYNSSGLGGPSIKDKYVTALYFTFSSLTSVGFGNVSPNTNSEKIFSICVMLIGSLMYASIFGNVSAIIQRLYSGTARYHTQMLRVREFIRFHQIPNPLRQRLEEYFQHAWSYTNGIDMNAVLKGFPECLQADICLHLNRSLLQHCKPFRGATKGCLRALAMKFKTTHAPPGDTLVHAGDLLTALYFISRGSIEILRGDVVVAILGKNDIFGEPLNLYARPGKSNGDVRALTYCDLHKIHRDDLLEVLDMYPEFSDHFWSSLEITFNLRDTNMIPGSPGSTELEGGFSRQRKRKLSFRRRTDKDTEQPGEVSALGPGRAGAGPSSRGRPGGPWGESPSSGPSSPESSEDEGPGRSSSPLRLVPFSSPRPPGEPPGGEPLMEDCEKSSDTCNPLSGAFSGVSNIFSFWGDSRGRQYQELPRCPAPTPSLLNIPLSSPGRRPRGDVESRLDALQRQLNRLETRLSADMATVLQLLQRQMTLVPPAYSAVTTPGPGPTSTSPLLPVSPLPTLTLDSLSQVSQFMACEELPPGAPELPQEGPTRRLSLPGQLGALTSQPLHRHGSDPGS
As for `CC1CCC2(CC1)NC(=O)N(CC(=O)Nc1ccc(F)cc1)C2=O` (centres unmarked), the “hERG current change (%, negative = inhibition) at 1uM” value stood at 7.67%.
For `O=C(NCCCN1CCCC1=O)c1cccc(S(=O)(=O)Nc2ccccc2Cl)c1` the value was 14.5%; for `O=C(c1cc2c(=O)oc3ccccc3c2s1)N1CCOCC1`, 9.75%.
The value for `CC(=O)NC1=NN(C(C)=O)C(C)(CC(=O)OC(C)(C)C)S1` (centres unmarked) was 10.3%.
Turning to `CCCN1C(=O)c2ccccc2NC1c1ccc(Cl)cc1` (centres unmarked), the “hERG current change (%, negative = inhibition) at 1uM” value was found to be 10.4%.
For `N=c1ncn(Cc2ccccc2)c2nc(SCCOc3ccccc3)[nH]c12` the value was 5.42%.
The value for `CCOc1ccccc1C(=O)N1CCCCC1C` (centres unmarked) was 23.7%; that for `Cc1ccc(NC(=S)Nc2ccc3[nH]c(=O)[nH]c3c2)cc1C` was 16%; that for `Cc1sc(NC(=O)c2ccccc2)c(C(=O)c2ccccc2)c1C` was -1.45%.
For `Cc1cc2c(s1)CCCCC(=O)N2` the value was 14.4%.
With `CC1CCCN(Cc2c(C(=O)N3CCc4ccccc4C3)nc3ccc(Cl)cn23)C1` (centres unmarked), the “hERG current change (%, negative = inhibition) at 1uM” value is listed as 3.44%.
For `Cc1ccc(-c2csc3nc4cc(C(N)=O)ccc4c(=O)n23)cc1` the value was -2.01%; for `Cc1nnc(NC(=O)CSc2nnc(Cc3cccn3C)n2-c2ccccc2)s1`, 9.39%; for `Cc1cc2nc(C(C)(C)C)cc(N)n2n1`, 1.9%.
For `CC1(C)N=C(/C=N/O)C=[N+]1[O-]` the value was 20.9%.
Turning to `COc1ccc(S(=O)(=O)Nc2c(C)n(C)n(-c3ccccc3)c2=O)cc1C(=O)O`, the “hERG current change (%, negative = inhibition) at 1uM” value is 8.32%.
The value for `O=C(Nc1cc(Br)ccc1O)C1CC(c2ccccc2Cl)=NO1` (centres unmarked) was 18.5%.
For the compound `Cc1occc1-c1nnc(SCC(=O)N2CCOCC2)o1`, the “hERG current change (%, negative = inhibition) at 1uM” value was found to be 12.7%.
Regarding `CC1(C)CC(=O)C=C(Nc2ccc(Br)cc2F)C1`, the “hERG current change (%, negative = inhibition) at 1uM” value is 10.5%.
For `COc1ccc(NC(=O)c2sccc2C)c([N+](=O)[O-])c1` the value was 15%; for `Cc1cccc(OCC(=O)NCC(=O)N/N=C/c2c(C)[nH]c3ccccc23)c1`, 4.8%.
For `COCC(=O)Nc1nnc(SCC(=O)NCc2cccs2)s1` the value was 11.1%.
For `NC(=S)N/N=C/c1ccccc1OC(=O)/C=C/c1ccccc1` the value was 11.4%; for `COc1ccc(-c2noc(CNC(=O)c3ccc4c(c3)OCO4)n2)cc1OC`, 13.6%.
Take `Cc1ccc(C)c(NC(=O)CN(C)C(=O)c2ccncc2)c1`: the “hERG current change (%, negative = inhibition) at 1uM” value is recorded as 8.43%.
For `COC(=O)c1cccc(NC(=O)CSc2nnc(C)n2Cc2ccccc2)c1` the value was 0.797%; for `Cc1nn(CC(C)C)c(=S)[nH]c1=O`, 5.82%.
The value for `CCOC(=O)/C(=N/Nc1ccccc1)Sc1nnnn1-c1ccc(C)cc1` was -4.06%; that for `CCOC(=O)COc1cc(Br)c(C2NC(=O)NC(C)=C2C(C)=O)cc1OCC` (centres unmarked) was 12.4%; that for `COc1cc(NS(=O)(=O)c2ccc(NC(=O)/C=C/c3cccc([N+](=O)[O-])c3)cc2)ncn1` was 9.11%.
For `Cc1ccc(-c2nc3ccccc3c(=O)n2NC(=O)c2cccs2)cc1` the value was 8.81%; for `O=C1/C(=C\Nc2ccccc2)CCN1c1ncccn1`, 12.7%; for `Cc1cc2nc(C)c3c(n2n1)CCC3`, 9.49%.
As to `CCCC(C(=O)NCCC(C)C)N(Cc1ccccc1Cl)C(=O)c1snc(C(N)=O)c1N` (centres unmarked), the “hERG current change (%, negative = inhibition) at 1uM” value came out at 13.8%.
In the case of `CCN(CC)CCN1C(=O)C(=O)/C(=C(/O)c2c(C)[nH]c(C(=O)OC)c2C)C1c1cccc(OC)c1` (centres unmarked), the “hERG current change (%, negative = inhibition) at 1uM” value is given as -5.96%.
Take `O=C(Nc1ccc(Cl)cn1)C1COc2ccccc2O1` (centres unmarked): the “hERG current change (%, negative = inhibition) at 1uM” value is recorded as -1.26%.
For `O=c1[nH]c(=S)n(C2CC2)c(O)c1/C=N/Nc1cccc2ccccc12` the value was 9.98%; for `CCc1ccc(C(O)(c2ccccc2OC)C(CN2CCOCC2)c2ccccc2)cc1.Cl` (centres unmarked), -6.35%; for `O=C(c1coc(=O)c2ccccc12)N1CCN(Cc2ccccc2)CC1`, -12.2%.
The value for `CCOC(=O)c1sc2nc(C)cc(C)c2c1N` was -0.853%.
The value for `Cc1ccc(CCNC(=O)c2nn(C)c3c2CS(=O)(=O)c2ccccc2-3)cc1` was 4.49%; that for `CCC(Sc1ccc(Cl)cc1)C(=O)Nc1nnc(-c2cccc([N+](=O)[O-])c2)s1` (centres unmarked) was 11.3%; that for `COc1ccc(OC)c(S(=O)(=O)Nc2cc3c(cc2N2CCCC2)n(C)c(=O)c(=O)n3C)c1` was 0.155%.
Regarding `CC(C)(C)NC(=O)C(c1ccsc1)N(CCc1ccccc1)C(=O)Cn1nnc2ccccc21` (centres unmarked), the “hERG current change (%, negative = inhibition) at 1uM” value is 14.4%.
